# Screen size: about 52,000 compounds; about 1,700 (3.3%) were called active. Cut-off read from the data, not from the text of the source: active = survival mostly below about 52% (no sharp cut-off); inactive = mostly above about 56%. The list shows a part of the results.
# System: Wild type
# Experiment: S. aureus survival, RN4220 and DeltatarO strains – OD600, teichoic acid synthesis inhibitors, primary screen (AID 463173)
# Conditions: S. aureus RN4220 wild type/DeltatarO growth, OD600, 18 h, active compounds read low, screened at 18.75 µg/mL (by protocol)
row,Compound,survival
1,O=C(O)C1C2C=CC(C2)C1C(=O)NCCN1CCOCC1 (centres undefined),inactive: 102%
2,O=C(COc1ccccc1Cl)Nc1ccc2nc(SCC(=O)N3CCOCC3)sc2c1,inactive: 88%
3,CCSc1nc2sc3c(c2c(=O)n1-c1ccc(C)c(Cl)c1)CCN(C(C)=O)C3,inactive: 70%
4,O=S(=O)(c1ccc2nc(Nc3ccc(Br)cc3F)ccc2c1)N1CCCCC1,inactive: 81%
5,COc1ccc(CN(CCN(C)C)Cc2ccccc2)c(OC)c1,inactive: 114%
6,O=C(CCNS(=O)(=O)c1ccc2c(c1)CCCC(=O)N2)NCc1ccc(Cl)cc1,inactive: 72%
7,Cc1cc(Cl)ccc1OCCSc1nnc(-c2cccs2)o1,inactive: 67%
8,Cc1ccccc1Cn1cc(S(=O)(=O)c2ccc(F)cc2)c(=O)c2cc3c(cc21)OCO3,inactive: 85%
9,Cc1cc(=O)n(Cc2ccc(Br)cc2F)c2c1c(C)nn2-c1ccccc1,inactive: 75%
10,Cc1ccc(NC(=O)Cn2c(=O)n(CCCCC(=O)NCCc3ccccc3)c(=O)c3ccccc32)cc1,inactive: 97%
11,COC(=O)c1sccc1S(=O)(=O)N(CC(=O)Nc1cc(F)ccc1F)c1ccc(C)c(C)c1,inactive: 133%
12,CCc1ccc(-c2[nH]nc3nc(-c4cc(OC)ccc4OC)cc(C(=O)O)c23)cc1,inactive: 100%
13,CCc1nccn1S(=O)(=O)c1cc(Br)ccc1Br,inactive: 69%
14,COc1ccc(C)cc1NC(=O)CN(C)S(=O)(=O)c1ccc2[nH]c(=O)oc2c1,inactive: 77%
15,COC(=O)c1ccc2c(c1)N(CC(=O)Nc1ccc(C)cc1Cl)C(=O)c1ccccc1S2,inactive: 81%
16,CCn1c(C)c(C)c2cc(C(=O)NCCc3cc(OC)ccc3OC)ccc21,inactive: 68%
17,O=C(Nc1cccc(C(F)(F)F)c1)C1CCCN(S(=O)(=O)c2cccc3nonc23)C1 (centres undefined),inactive: 95%
18,Cc1oc2ncn(CC(C)C)c(=O)c2c1C(=O)NCCCN(C)Cc1ccccc1,inactive: 76%
19,Cc1cc2oc(C(=O)Nc3ccc(S(=O)(=O)N(C)c4ccccc4)cc3)cc(=O)c2cc1C,inactive: 87%
20,Cc1oc2c(C)c3oc(=O)c(CCC(=O)N4CCCCC4)c(C)c3cc2c1C,inactive: 99%
21,CC(C)(C)c1ccc(C(=O)Nc2nnc3n2CCS3)cc1,inactive: 69%
22,CCOC(=O)c1c(SCC(=O)Nc2cccc(C)c2C)nc(=O)[nH]c1C,inactive: 63%
23,COc1cc(-c2nnc(SCCOc3ccccc3)o2)cc(OC)c1OC,inactive: 84%

row,Compound,survival
1,CCOC(=O)Cn1c(=O)oc2cc(S(=O)(=O)Nc3ccccc3F)ccc21,inactive: 65%
2,CC(=O)N1CCc2c(sc(NC(=O)CSc3ccc(F)cc3)c2-c2nc3ccccc3s2)C1,inactive: 120%
3,COc1ccc(-c2noc(-c3ccc(NCCc4ccccc4)c([N+](=O)[O-])c3)n2)cc1,inactive: 84%
4,COc1ccc(S(=O)(=O)N(CC(=O)Nc2ccc3c(c2)OCO3)c2ccccc2)cc1,inactive: 117%
5,Cc1noc(C)c1C(=O)N(c1ccccc1)C(C(=O)NC1CCCC1)c1ccc(F)cc1 (centres undefined),inactive: 107%
6,O=C(Cn1cc(S(=O)(=O)Cc2ccccc2Cl)c2ccccc21)Nc1ccc(F)cc1F,inactive: 88%
7,NC(Cc1ccccc1)C(O)(c1ccccc1)c1ccccc1 (centres undefined),inactive: 110%
8,COc1ccccc1N1CCN(C(=O)COc2ccccc2C#N)CC1,inactive: 83%
9,CCOc1ccc(CNC(=O)c2ccc3c(c2)N(Cc2ccccc2)CCS3)cc1,inactive: 95%
10,O=C(Cn1ncc2c(Cl)cccc21)NCc1cccc(F)c1,inactive: 117%
11,COc1ccc2[nH]cc(NC(=O)N3CCN(C(=O)OC(C)(C)C)CC3)c(=O)c2c1,inactive: 101%
12,CCOc1ccc(S(=O)(=O)N2CCC(n3c(C)nc4cccnc43)CC2)cc1,inactive: 89%
13,CC(=O)Nc1ccc2nc(SCCOc3ccccc3Cl)sc2c1,active: 9%
14,CCOC(=O)c1c(C)[nH]c(C)c1S(=O)(=O)N(C)CC(=O)Nc1ccc(C)c(F)c1,inactive: 83%
15,CCCCN(c1ccccc1)c1ncnc2c1cnn2-c1cccc(C)c1,inactive: 68%
16,CN(C(=O)CSc1nc2ccccc2n1CC(=O)N(C)C1CCCCC1)c1ccc(F)cc1,inactive: 120%
17,COC(=O)c1cc2sccc2n1Cc1nc(-c2ccc(C)cc2)oc1C,inactive: 28%
18,Cc1cc(C)c(NC(=O)C2CCCN(C(=O)c3cnn(-c4ccccc4)c3-n3cccc3)C2)c(C)c1 (centres undefined),inactive: 77%
19,CCc1ccccc1NC(=O)c1ccc2c(c1)c(C)c(C)n2Cc1ccccc1,inactive: 68%
20,CCc1ccc(S(=O)(=O)c2cn(Cc3ccc(OC)cc3)c3cc(OC)c(OC)cc3c2=O)cc1,inactive: 84%
21,O=C(COc1ccc(Br)cc1)Nc1ccc(C(=O)OC2CCCCC2)cc1,inactive: 81%
22,CCOc1ccc(NC(=O)Cn2c(=O)n(-c3ccccc3)c(=O)c3c4c(sc32)CCCC4)cc1,inactive: 102%
23,COc1ccc(NC(=O)CCc2c(C)nc3cc(-c4cccc(F)c4)nn3c2C)cc1Cl,inactive: 131%

row,Compound,survival
1,O=C(Nc1cccnc1)C(Cc1ccccc1)N1C(=O)c2ccccc2C1=O (centres undefined),inactive: 108%
2,CCc1nnc2c3ccccc3nc(N3CCN(c4cc(Cl)ccc4C)CC3)n12,inactive: 126%
3,CCc1nc2nc(C)cc(Nc3ccc(F)c(Cl)c3)n2n1,inactive: 71%
4,Cc1ccc(CN2CCC(CNC(=O)Nc3cccc(C)c3C)C2)cc1 (centres undefined),inactive: 119%
5,O=C1CC(c2ccc(Br)cc2)c2c(ccc3ccccc23)N1 (centres undefined),inactive: 39%
6,Cc1c(Cl)cccc1NC(=O)Cn1c(=O)n(Cc2ccco2)c(=O)c2oc3ccccc3c21,inactive: 84%
7,COC(=O)c1c(Oc2ccc(Br)cc2)nnc(-c2ccccc2)c1-c1ccccc1,inactive: 100%
8,Cc1cccc(C(=O)Nc2ccccc2OCc2cc(=O)n3cc(C)ccc3n2)c1,inactive: 47%
9,CC(=O)N1CCCc2cc(S(=O)(=O)N3CCCC(C(=O)Nc4ccc(C)c(F)c4)C3)ccc21 (centres undefined),inactive: 73%
10,COc1cc(OC)c2c(C)c(CC(=O)N3CCCCC3)c(=O)oc2c1,inactive: 84%
11,Clc1ccc(C2NCCS2)cc1 (centres undefined),inactive: 107%
12,COc1ccccc1-c1c(C)nn2c(N3CCN(c4ccc(F)cc4)CC3)cc(C)nc12,inactive: 88%
13,CC(C)n1c(=O)c2oc3ccccc3c2n(CC(=O)Nc2ccccc2Cl)c1=O,inactive: 92%
14,COc1cccc(-n2c(=O)c3c(C)c(C)sc3n(Cc3ccccc3C#N)c2=O)c1,inactive: 79%
15,CCOC(=O)c1ccccc1NC(=O)c1c(C)oc2ncnc(N3CCOCC3)c12,inactive: 85%
16,COc1ccc(-c2nc3sc(CCNC(=O)C(=O)Nc4ccccc4C#N)c(C)n3n2)cc1,inactive: 85%
17,CCOc1ccc(CNC(=O)c2cc3ccccn3n2)cc1,inactive: 64%
18,CCc1ccc(CCC(=O)Nc2ccc(C)c(C)c2)o1,inactive: 142%
19,COCCCNC(=O)c1ccc(Cn2c(=O)c3ccccc3n(Cc3ccc(Cl)cc3)c2=O)cc1,inactive: 91%
20,Cc1cccc(-n2c(SCC(=O)Nc3ccc(C)c(C)c3)nc3n[nH]c(C)c3c2=N)c1,inactive: 76%
21,O=C(CN1CCN(Cc2ccccc2F)C1=O)NCc1ccccc1,inactive: 127%
22,Cc1ccc(C(=O)N(Cc2ccco2)c2ccccn2)cc1,inactive: 90%
23,Cc1ccc(CNC(=O)c2c(Nc3ccccc3C)sc(C(=O)c3ccc(F)cc3)c2N)cc1,active: -3%

row,Compound,survival
1,COc1ccc(CC(=O)NCC(c2cccs2)S(=O)(=O)c2ccc(F)cc2)cc1 (centres undefined),inactive: 102%
2,COc1cccc(-c2nn(C)c3sc(C(=O)NCc4ccc(OC)cc4OC)cc23)c1,inactive: 77%
3,COc1ccc(CCNC(=O)c2ccc(Cn3c(SCc4ccccc4)nc4cccnc43)cc2)cc1,inactive: 85%
4,CC(C)c1cc(-c2nc(-c3ccc(Cl)cc3)no2)n[nH]1,inactive: 67%
5,CCc1cnc2c(c1SC(C(C)=O)C(=O)N(C)C)c(=O)n(C)c(=O)n2C (centres undefined),inactive: 78%
6,O=C(CCn1c(=O)c2ccccc2n(CC(=O)Nc2ccc(F)cc2)c1=O)NCCc1ccccc1,inactive: 80%
7,COc1cc(NC(=O)c2nn(C)c3c2COc2ccccc2-3)cc(OC)c1OC,inactive: 93%
8,CCOc1ccccc1NC(=O)C1=C(C)Nc2ncnn2C1c1ccco1 (centres undefined),inactive: 88%
9,COc1ccccc1C(=O)Nc1ccc(C(=O)OCc2cc(=O)n3c4c(sc3n2)CCCC4)cc1,inactive: 32%
10,Cc1ccc(CNC(=O)c2c(Nc3c(C)cccc3C)sc(C(=O)c3ccccc3)c2N)cc1,inactive: 47%
11,CCOc1ccc(C2C(C(N)=O)=C(C)Nc3nc(SCc4ccccc4F)nn32)cc1 (centres undefined),inactive: 87%
12,Cc1cccc(NC(=O)Cn2c(=O)n(Cc3ccccc3)c(=O)c3oc4ccccc4c32)c1C,inactive: 72%
13,CC(C)c1ccc(NC(=O)c2ccc(CN3CC(=O)N4CCCCC4C3=O)cc2)cc1 (centres undefined),inactive: 90%
14,COc1ccccc1NC(=O)c1cnn(-c2ccccc2)c1-n1cccc1,inactive: 99%
15,CC(C)NC(=O)C1CCN(C(=O)C(C(=O)c2ccccc2)n2cc(Cl)ccc2=O)CC1 (centres undefined),inactive: 109%
16,CN(C)c1ccc(CNC(=O)c2ccc3nc(Cc4ccccc4)oc3c2)cc1,inactive: 88%
17,Cc1cc(C)c(NC(=O)C(=O)NCCc2csc(-c3ccc(F)cc3)n2)c(C)c1,inactive: 76%
18,O=C(O)CCn1ccc2cc(S(=O)(=O)N3CCCCCC3)ccc21,inactive: 77%
19,CSc1ccc(CCNC(=O)c2csc3c2CCCCC3)cc1,inactive: 69%
20,CC(C)CSc1n[nH]c(N)n1,inactive: 102%

# — PubChem BioAssay AID463173 (ICCB-Longwood Screening Facility, Harvard Medical School, 2010)
